Measurements: the BET-seq Pho4 binding data (Le et al. 2018)
This is one part of the list. Values were computed here from the reads of four pooled replicates and scatter widely.

biological target: T1, Pho4 (S. cerevisiae) (UniProt P07270); assay: relative binding free energy (BET-seq); higher = weaker binding; settings: reference: library average
T1 sequence: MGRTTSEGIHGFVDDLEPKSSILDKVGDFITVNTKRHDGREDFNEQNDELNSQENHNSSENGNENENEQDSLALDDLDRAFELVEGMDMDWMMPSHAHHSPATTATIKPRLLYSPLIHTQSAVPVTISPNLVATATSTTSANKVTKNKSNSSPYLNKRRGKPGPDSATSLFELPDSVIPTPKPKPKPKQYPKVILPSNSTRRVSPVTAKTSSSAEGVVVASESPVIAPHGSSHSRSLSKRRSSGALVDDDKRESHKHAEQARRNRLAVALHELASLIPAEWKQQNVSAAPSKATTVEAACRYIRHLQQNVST

Sequence | relative binding free energy
TAAAACACGTGGGTGT | -0.12 kcal/mol
TCGTTCACGTGCTTTT | 0.27 kcal/mol
GTTATCACGTGGAATT | 0.1 kcal/mol
TTTTGCACGTGGGTGT | -0.1 kcal/mol
AACAGCACGTGGGGGT | -0.25 kcal/mol
GTCTTCACGTGAAGTG | 0.37 kcal/mol
GAAGGCACGTGAGGGG | 0.18 kcal/mol
GGCGGCACGTGTGTTA | -0.1 kcal/mol
GTTCGCACGTGGTGGG | -0.06 kcal/mol
GTGAGCACGTGGGATT | -0.12 kcal/mol
CGTTACACGTGGGCTT | 0.06 kcal/mol
GGGTACACGTGAATGT | 0.38 kcal/mol
TCGTGCACGTGGTACG | -0.18 kcal/mol
GGGTACACGTGTTTGG | 0.09 kcal/mol
TGTGTCACGTGCTTTG | 0.03 kcal/mol
TTTGTCACGTGTGCAA | 0.1 kcal/mol
TTCGTCACGTGGGATG | 0.03 kcal/mol
AGACGCACGTGAGGTG | 0.17 kcal/mol
ATCGTCACGTGCGGTA | 0.1 kcal/mol
TTCTTCACGTGAGTAA | 0.33 kcal/mol
ATCTTCACGTGGAGGG | 0.14 kcal/mol
ATGGGCACGTGTGGCT | 0.01 kcal/mol
TTAGACACGTGTGCGT | 0.02 kcal/mol

Sequence | relative binding free energy
GGTGCCACGTGGTAGT | 0.02 kcal/mol
AGGTTCACGTGGGCTA | 0.14 kcal/mol
CTAAGCACGTGGGGTG | -0.29 kcal/mol
TTTCGCACGTGATGGG | 0.07 kcal/mol
TGATCCACGTGTTATA | 0.08 kcal/mol
TTGCTCACGTGTTGCG | 0.23 kcal/mol
GGGCTCACGTGTCTGG | 0.35 kcal/mol
CCAGGCACGTGGTGGT | -0.28 kcal/mol
GCTGTCACGTGTAGTT | 0.08 kcal/mol
GGGAGCACGTGAGGTT | 0.23 kcal/mol
AACGTCACGTGGGGTG | -0.09 kcal/mol
TTGGGCACGTGAGTAT | 0.15 kcal/mol
TTAAGCACGTGTTAAA | 0.04 kcal/mol
TTTTGCACGTGTTGCG | 0.15 kcal/mol
TTTGGCACGTGGTGCT | -0.26 kcal/mol
TTTTTCACGTGTTCTA | 0.3 kcal/mol
GAGTTCACGTGACGTT | 0.42 kcal/mol
TTTATCACGTGCGGTA | 0.14 kcal/mol
TCTAGCACGTGGGAAT | 0.03 kcal/mol
TGTGTCACGTGGATAT | 0.12 kcal/mol
TCTATCACGTGAGAGT | 0.3 kcal/mol
GTAGGCACGTGAAATG | 0.21 kcal/mol
TCTGTCACGTGGGGGT | 0.06 kcal/mol

Sequence | relative binding free energy
TTCGGCACGTGTGGTT | 0 kcal/mol
GTTTCCACGTGGGGTT | -0.01 kcal/mol
GGTGGCACGTGGTTTT | 0.02 kcal/mol
TGTAACACGTGGTGTA | -0.08 kcal/mol
CGGGGCACGTGTGTTG | -0.07 kcal/mol
GTGGGCACGTGTATTC | 0.16 kcal/mol
TTCGACACGTGGGGCT | -0.1 kcal/mol
CTGGTCACGTGGGTCA | 0.03 kcal/mol
GGGTCCACGTGAGGGT | 0.23 kcal/mol
GTCTGCACGTGATGTG | 0.1 kcal/mol
AGAGTCACGTGCTAGT | 0.06 kcal/mol
TTGGTCACGTGTCTTG | 0.19 kcal/mol
GGTTGCACGTGTGGAA | 0.16 kcal/mol
ATGTACACGTGCGATT | 0.2 kcal/mol
GGTCCCACGTGTTGGG | -0.03 kcal/mol
AGTATCACGTGGGCTT | -0.11 kcal/mol
GAGGACACGTGGGATT | -0.1 kcal/mol
GTGTACACGTGGTAGG | -0.05 kcal/mol
AAAGGCACGTGTAGTA | 0.02 kcal/mol
TAGTACACGTGTCGTG | 0.03 kcal/mol
AGTGCCACGTGAGAGG | 0.02 kcal/mol
CTTGTCACGTGTTATA | 0 kcal/mol
TGTATCACGTGCATGA | 0.14 kcal/mol

Sequence | relative binding free energy
AGGGTCACGTGGCTAA | -0.04 kcal/mol
TGGGACACGTGAAATG | 0.15 kcal/mol
CTTGGCACGTGGCTGT | -0.17 kcal/mol
GTGGGCACGTGAGAGA | 0.15 kcal/mol
TATTTCACGTGGCTTT | 0.15 kcal/mol
GGAAGCACGTGGTTAG | -0.18 kcal/mol
TGTAGCACGTGTTCGA | -0.21 kcal/mol
AAACGCACGTGTGGGT | -0.08 kcal/mol
GGAGTCACGTGTTTAA | 0.26 kcal/mol
TATTGCACGTGCGATT | -0.1 kcal/mol
TTTTACACGTGTTCGT | 0.2 kcal/mol
TTGAACACGTGTCGGG | 0.07 kcal/mol
TGTTACACGTGAAGGC | 0.37 kcal/mol
TGTAACACGTGATTGA | -0.01 kcal/mol
TTATCCACGTGAGTGG | 0.12 kcal/mol
TTATGCACGTGCTTTG | -0.06 kcal/mol
CGTAACACGTGGTGAG | -0.08 kcal/mol
TGGATCACGTGGTCAG | 0.04 kcal/mol
GGTATCACGTGTGCGT | 0.22 kcal/mol
TGGTGCACGTGCGCGA | -0.21 kcal/mol
TTGAACACGTGTGTTT | 0.02 kcal/mol
AGTGTCACGTGGTACA | -0.02 kcal/mol
CGTGACACGTGGGTAT | -0.09 kcal/mol

Sequence | relative binding free energy
AAGGACACGTGGGGTT | -0.15 kcal/mol
TGGGTCACGTGTCAAT | 0.05 kcal/mol
TGATTCACGTGTAATA | 0.22 kcal/mol
TGGCGCACGTGGTTCG | -0.09 kcal/mol
ATAGTCACGTGTCGGT | 0.13 kcal/mol
AAAGGCACGTGTTCGT | -0.23 kcal/mol
TAGGTCACGTGCGTGC | -0.04 kcal/mol
ATTTTCACGTGTATTT | 0.08 kcal/mol
TATGGCACGTGATCGT | -0.07 kcal/mol
GGGGACACGTGCATTT | 0.26 kcal/mol
ATTTTCACGTGCTATA | 0.21 kcal/mol
TAAGGCACGTGAGGGG | 0.07 kcal/mol
GATTTCACGTGTTAAG | 0.34 kcal/mol
GGCCTCACGTGGTGGA | 0.14 kcal/mol
TGTTACACGTGCAATA | 0.22 kcal/mol
TCTGGCACGTGTGCGT | -0.08 kcal/mol
GACTACACGTGGAGGT | 0.27 kcal/mol
TTGTGCACGTGAGTCT | 0.09 kcal/mol
GTAGTCACGTGAGCGT | 0.28 kcal/mol
TTTATCACGTGGTGGA | 0.26 kcal/mol
TGGTTCACGTGGGAGA | 0.3 kcal/mol
TCAGGCACGTGTTGGT | -0.02 kcal/mol
TATTTCACGTGGGAGT | 0.33 kcal/mol
